Among all 330,000 compounds or so, about 1,700 (0.52%) were called active. Calls come from the whole dose curve; as a rule, active = well fitted inhibition curve with a large enough effect; inconclusive = small, poorly fitted or top-dose-only effect; inactive = no such curve, though single readings can be large or run the other way. A structure can be active in one record and inactive in another. A number of entries come with more than one value. Only these are listed. An entry can have further records. Values given together repeat one measurement (runs, samples, wells, individuals or studies). What stands in brackets tells the records apart. A, B and so on number the origins entry by entry.
Potency is the fitted concentration of half-maximal effect.

UniProt P00811, sequence (P00811 whole entry, looked up): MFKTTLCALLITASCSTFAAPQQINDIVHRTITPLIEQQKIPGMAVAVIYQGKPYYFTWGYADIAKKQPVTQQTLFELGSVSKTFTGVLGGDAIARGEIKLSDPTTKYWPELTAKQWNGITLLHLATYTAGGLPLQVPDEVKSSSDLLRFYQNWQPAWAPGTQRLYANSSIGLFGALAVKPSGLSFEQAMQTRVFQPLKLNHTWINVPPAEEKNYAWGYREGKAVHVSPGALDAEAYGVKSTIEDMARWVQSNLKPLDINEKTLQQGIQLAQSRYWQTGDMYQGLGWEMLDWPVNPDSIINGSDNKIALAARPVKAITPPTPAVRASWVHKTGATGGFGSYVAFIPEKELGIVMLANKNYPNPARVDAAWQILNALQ

The experiment concerns the target Beta-lactamase (Escherichia coli (strain K12)) (UniProt P00811). Nature of the experiment: qHTS Inhibitors of AmpC Beta-Lactamase (assay without detergent). Note: nearly all actives have a fitted effect of over 20% in size. The following applies: AmpC nitrocefin hydrolysis, absorbance 480 nm, 0.0001% Triton; series mostly up to 57.1 µM. As to the method:
NIH Molecular Libraries Probe Production Network [MLPCN] NIH Chemical Genomics Center [NCGC] Assay Provider: Professor Brian Shoichet, UCSF Assay Overview: This aggregation profiling approach exploits the sensitivity of aggregate formation to detergent. Inhibition of b-lactamase is measured in the presence and absence of 0.01% Triton X-100. This particular assay had the prescence of 0.01% Triton X-100. See Pubchem assay "Promiscuous and Specific Inhibitors of AmpC Beta-Lactamase (assay without detergent)" for related screen. Compounds that inhibit only in the absence of detergent are considered likely promiscuous aggregators. A screen of 1,030 compounds was performed in Brian Shoichet's lab in 96-well format. AmpC activity was measured by following the absorbance at 480 nm. Nitrocefin is a chromogenic substrate: while nitrocefin is yellow (lmax 390 nm), the product of its hydrolysis is red (lmax 486 nm, 17,000 M-1). AmpC beta lactamase was provided by Shoichet Lab, UCSF.
Buffer: 20 mM phosphate buffer, pH 7.0 Triton X-100: No Detergent screen: 0.0001%, Detergent screen: 0.01%. Reagents/Controls: Buffer in columns 3 and 4 as negative control (no enzyme). 5.3 nM AmpC in columns 1, 2, 5-48. […] The plates were immediately transferred to and read every 20 seconds for 4 min on ViewLux (Perkin-Elmer) High-throughput CCD imager using 480 nm absorbance protocol. […]
(In general: In qHTS, concentration-response curves come from the screen itself.)
Turning to `CO/N=C(\C(=O)N[C@@H]1C(=O)N2C(C(=O)O)=C(COC(C)=O)CS[C@H]12)c1csc(N)n1` (stereo in doubt), the Potency entry is “inactive [sample A] and inactive [sample B] and active: 14.1 µM [sample C]”.

For the origin of these results see PubChem BioAssay AID485341 (National Center for Advancing Translational Sciences (NCATS), 2010).
